# Test results taken from PubChem BioAssay AID686978 (National Center for Advancing Translational Sciences (NCATS), 2013).
# “And” between values parts separate entries of the source, which are not always exact repeats. Identical values can stand only once. In all, about 420,000 compounds went through this assay and about 64,000 (15%) were called active. The inconclusive results got no clear call from the source; some entries with a clear call stand among them for comparison. Calls follow the shape of the dose curve; as a rule, active = well fitted inhibition curve with a large enough effect; inconclusive = small, poorly fitted or top-dose-only effect; inactive = flat fitted curve, though single readings scatter. Where the call is inconclusive, the potency comes from a doubtful curve fit.
# Assay: qHTS for Inhibitors of human tyrosyl-DNA phosphodiesterase 1 (TDP1): qHTS in cells in absence of CPT; also: nearly all actives have a fitted effect of over 55% in size
# Conditions: DT40 Tdp1-/- hTDP1 cells, no CPT, ATP luminescence, 48 h; activity change, negative = growth inhibition: at 46.2 µM (top of the series) unless noted
# Procedure, shortened: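 Growth kinetics read by CellTiter-Glo luminescence after ≥48 hr at 37 °C. Cells: DT40 Tdp1-/- stably carrying human TDP1, 400 per well, compound exposure in the absence of CPT (DMSO vehicle).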
# % is scaled to controls: 0 for no effect and ±100 for the full control effect; potency is read from the fitted curve at half-maximal effect; tags tell the direction and shape of the fitted curve.
Structure (SMILES),Potency,"activity change, negative = growth inhibition"
CC(=O)c1ccc(NC(=O)c2ccc3nc(-c4ccco4)c(-c4ccco4)nc3c2)cc1,"inconclusive: 11.6 µM [inhibitor, partial curve]",–
Cc1ccc(NC(=O)CN(C)C(=O)c2cc(-c3cccs3)nn2-c2ccccc2)cc1,"inconclusive: 18.4 µM [inhibitor, single point]",–
COc1ccc(/C=N/NC(=O)c2cc(-c3cccnc3)nc3ccccc23)c(OC)c1,active: 4.61 µM,–
CN1CCN(S(=O)(=O)c2ccc(N3CCN(c4ccccc4Cl)CC3)nc2)CC1,active: 14.6 µM,–
O=S(=O)(NCc1ccc(F)cc1)c1ccc2[nH]c3c(c2c1)CCCC3,active: 16.4 µM,–
O=C(C1CCC(CNc2c(N3CCCCC3)c(=O)c2=O)CC1)N1CCc2ccccc2C1 (stereo unspecified),active: 16.4 µM,–
O=C(Nc1cccc(F)c1)N1CCC2(CC1)CCN(C(=O)c1cccc(F)c1)CC2,active: 20.6 µM,–
CC(Sc1ccccc1)C(=O)NNC(=O)c1ccncc1 (stereo unspecified),–,inactive: -0.396%
O=C(NC(=S)N1CCN(c2ccc(O)cc2)CC1)c1ccco1,"inconclusive: 29.1 µM [inhibitor, single point]",–
Cc1nn(-c2ccccc2)c(N2CCCC2)c1/C=N/NC(=O)c1cc(-c2ccccc2)nc2ccccc12,"inconclusive: 29.1 µM [inhibitor, single point]",–
O=C(NC(=S)Nc1ccc(NC(=O)c2cccs2)cc1)c1ccco1,"inconclusive: 29.1 µM [inhibitor, single point]",–
CCOC(=O)C(Cc1ccccc1)NC(=O)Cn1nnc(-c2ccc(SC)cc2)n1 (stereo unspecified),"inconclusive: 25.9 µM [inhibitor, single point]",–
Cc1cc(/C=C(\C#N)C(N)=O)c(C)n1-c1ccc(N2CCOCC2)c([N+](=O)[O-])c1,active: 23.1 µM,–
O=C(c1ccco1)N1CCN(C(=O)c2cccn3c(=O)c4c5c(sc4nc23)CCCC5)CC1,"inconclusive: 29.1 µM [inhibitor, single point]",–
CCc1nonc1NC(=O)c1oc2cc(C)c(C)cc2c1C,"inconclusive: 16.4 µM [inhibitor, single point] and inconclusive: 29.1 µM [inhibitor, single point]",–
COc1ccc(C(=O)Oc2ccc(C(c3c(C)[nH][nH]c3=O)c3c(C)[nH][nH]c3=O)cc2)cc1,–,inactive: -14.6%
COc1ccc(NC(=O)C2Cc3ccccc3CN2S(=O)(=O)c2ccccc2)cc1OC (stereo unspecified),"inconclusive: 25.9 µM [inhibitor, single point]",–
Fc1ccccc1CSc1nc2ccccc2[nH]1,"inconclusive: 29.1 µM [inhibitor, single point]",–
COc1ccc(NC(=O)c2cccs2)cc1,"inconclusive: 2.59 µM [inhibitor, partial curve]",–
Cc1ccc2cc(/C=N/NC(=O)CN3CCCCC3)c(Cl)nc2c1,"inconclusive: 23.1 µM [inhibitor, single point]",–
COc1cc(C(=O)N2CCN(c3cccc(C)c3C)CC2)cc(OC)c1OC,active: 0.82 µM,–
Cc1ccc(N2CCN(C(=O)C3CCN(S(=O)(=O)c4cccc5nsnc45)CC3)CC2C)cc1 (stereo unspecified),active: 16.4 µM,–

Structure (SMILES),Potency,"activity change, negative = growth inhibition"
COc1cc(C2(c3ccc(O)c(OC)c3)C(=O)N(C)c3ccc(C)cc32)ccc1O,"inconclusive: 0.291 µM [inhibitor, partial curve]",–
COC(=O)c1ccc2nc(-c3ccc(C#N)cc3)c(Cc3cccc(Cl)c3)n2c1,active: 20.6 µM,–
CCc1ccccc1NC(=O)CCCn1c(=O)c2cccn2c2ccccc21,active: 16.4 µM,–
CCN(Cc1ccc(NC(C)=O)cc1)CC1CCCN(CCc2cccc(OC)c2)C1 (stereo unspecified),active: 20.6 µM,–
CNC[C@@H]1Oc2cc(Br)ccc2S(=O)(=O)N([C@@H](C)CO)C[C@@H]1C,–,inactive: 0.254%
Cn1c(=O)c2[nH]c(N3CCN(c4ccccc4)CC3)nc2n(C)c1=O,"inconclusive: 23.1 µM [inhibitor, single point]",–
Cc1cc(C)nc(NS(=O)(=O)c2ccc(NC(=O)c3ccccc3Br)cc2)n1,–,inactive: 7.23%
CCc1ccccc1N(C(C)=O)c1nc(CN=C=S)cs1,"inconclusive: 20.6 µM [inhibitor, partial curve]",–
CCOC(=O)C1=CC[C@H]2c3c(c4ccccc4n3C)C[C@H]1N2C,"inconclusive: 20.6 µM [inhibitor, partial curve]",–
CCCCC(=O)NC(Nc1sc2c(c1C(N)=O)CCCC2)(C(=O)OCC)C(F)(F)F (stereo unspecified),"inconclusive: 29.1 µM [inhibitor, single point]",–
COCCNS(=O)(=O)c1cc2[nH]c3c(c2cc1C)C(=O)CC(C)(C)C3,"inconclusive: 20.6 µM [inhibitor, partial curve, poor fit]",–
O=C(c1ccc(Cl)c(S(=O)(=O)N2CCCCCC2)c1)N1CCN(c2ccccc2O)CC1,"inconclusive: 20.6 µM [inhibitor, partial curve]",–
COc1ccc(CCNC(=O)C(=O)NCC2CCCN2S(=O)(=O)c2ccc(OC)cc2)cc1 (stereo unspecified),"inconclusive: 23.1 µM [inhibitor, single point]",–
CCOC(=O)c1c(C)[nH]c(C(=O)N/N=C/c2ccc(Br)cc2)c1C,active: 0.0231 µM,–
Cc1c(C(=O)NCCCc2ccncc2)cnn1-c1ncc2c(n1)-c1ccccc1CC2,"inconclusive: 16.4 µM [inhibitor, single point]",–
CN(CC(=O)N(CCO)Cc1ccccc1)S(=O)(=O)c1ccc2c(c1)c(=O)n(C)c(=O)n2C,–,inactive: -0.623%
CCOc1ccc(N2CC(O)(c3cccs3)[N+]3=C2CCCC3)cc1 (stereo unspecified),"inconclusive: 23.1 µM [inhibitor, partial curve, poor fit]",–
Cc1ccccc1N1CCN(C2CCCN(C(=O)CCC(F)(F)F)C2)CC1 (stereo unspecified),"inconclusive: 20.6 µM [inhibitor, single point]",–
COc1cc2c(C(=O)N3CCN(c4cccc(Cl)c4)CC3)cn(CC(C)C)c(=O)c2cc1OC,"inconclusive: 25.9 µM [inhibitor, single point]",–
CN(C)C1CN(Cc2cn(Cc3ccc(F)cc3)nn2)S(=O)(=O)C1 (stereo unspecified),–,inactive: -22.2%
COc1cc(N)c(Cl)cc1C(=O)OCC(=O)N1c2ccccc2NC(=O)C1(C)C,"inconclusive: 11.6 µM [inhibitor, partial curve]",–
Cc1cc(S(=O)(=O)Nc2ccc3oc4c(c3c2)CCCC4)ccc1Cl,active: 23.1 µM,–

Structure (SMILES),Potency,"activity change, negative = growth inhibition"
COc1cc(-c2nc(CN3CCCN(C(=O)c4ccco4)CC3)c(C)o2)ccc1F,"inconclusive: 29.1 µM [inhibitor, single point]",–
O=C1CN(C(=O)Cc2ccccc2)C(c2ccc(F)cc2)c2cc(Br)ccc2N1 (stereo unspecified),"inconclusive: 29.1 µM [inhibitor, single point]",–
COc1cc(CNc2nccn3ccnc23)cc(OC)c1,"inconclusive: 13 µM [inhibitor, partial curve]",–
CCC(=O)Oc1ccc2c(c1)O/C(=C\c1ccco1)C2=O,"inconclusive: 18.4 µM [inhibitor, single point]",–
O=C1CC(NS(=O)(=O)c2ccccc2)CN1c1ccc2c(c1)OCCO2 (stereo unspecified),"inconclusive: 29.1 µM [inhibitor, single point]",–
CC(=O)c1c(C)[nH]c(C2=NNC(=NCc3ccccc3)SC2)c1C,"inconclusive: 32.6 µM [inhibitor, partial curve, poor fit]",–
CSc1nsc(/C=C/Nc2ccc(O)cc2C)c1C#N,"inconclusive: 16.4 µM [inhibitor, single point]",–
CCOc1cc(/C=N/NC(N)=O)cc(Br)c1OCc1ccccc1F,"inconclusive: 9.2 µM [inhibitor, partial curve, poor fit]",–
Cc1ccc(C(=O)OCC(=O)N2CCC(Cc3ccccc3)CC2)cc1N,"inconclusive: 29.1 µM [inhibitor, single point]",–
Cc1ccc(C(=O)N(NC2=NS(=O)(=O)c3ccccc32)S(=O)(=O)c2ccc(C)cc2)cc1,–,inconclusive: -35% [inhibitor]
CCCc1nn2c(=O)cc(COC(=O)c3ccc(NC(=O)COc4ccccc4F)cc3)nc2s1,"inconclusive: 20.6 µM [inhibitor, single point]",–
Cc1ccc(S(=O)(=O)N2CCc3cc(C(=O)Nc4ccc(Cl)cc4C)ccc32)cc1,–,inactive: -2.76%
O=C1[C@H]2[C@@H](c3ccccc3)N[C@]3(CCCN(CC4CCCCC4)C3=O)[C@H]2C(=O)N1Cc1ccccc1,"inconclusive: 29.1 µM [inhibitor, single point]",–
CCOC(=O)N1CCN(C(=O)C[C@@H]2C[C@@]3(C(=O)OCC)CCCC=C3N(Cc3ccco3)C2=O)CC1,–,inconclusive: -30.3% [inhibitor]
CCOc1ccc(CCNCc2c(C(=O)O)c(C)n(Cc3ccccc3F)c2C)cc1,–,inactive: -13.3%
COc1cccc(COC(=O)c2cc(S(=O)(=O)N3CCOCC3)ccc2Cl)c1OC,"inconclusive: 32.6 µM [inhibitor, single point]",–
COc1ccc(C(C)C)cc1S(=O)(=O)n1cnc(C)c1,active: 23.1 µM,–
CCCS(=O)(=O)c1c(S(=O)(=O)CCC)c2cc(-c3ccncc3)ccn2c1C(=O)OC,"inconclusive: 25.9 µM [inhibitor, single point]",–
S=C(NCc1ccc(Cl)cc1)N1CCN(c2ccccn2)CC1,–,inactive: -18.6%
NC1(N)OC(CN2C(=O)c3ccccc3C2=O)CS1 (stereo unspecified),"inconclusive: 13 µM [inhibitor, partial curve]",–
Cc1ccc(CN2C(=O)CCC2C(=O)NCCN2CCN(c3cccc(Cl)c3)CC2)cc1 (stereo unspecified),active: 14.6 µM,–
CC1CCN(C(=O)CN2C(=O)C(C)(C)Oc3ccc(C(=O)NC4CCCC4)cc32)CC1,"inconclusive: 20.6 µM [inhibitor, single point]",–
